Consider 45 molecules from paper PMC4336329 (PLoS ONE, 2015).

Molecules are shown by their SMILES. About 2,200 (0.71%) of roughly 310,000 compounds showed an effect of 50% or more. Effects have a minus sign here. The list shows a part of the results.

Sequence of human ether-à-go-go-related gene (hERG) potassium channel (Q12809 whole entry, looked up): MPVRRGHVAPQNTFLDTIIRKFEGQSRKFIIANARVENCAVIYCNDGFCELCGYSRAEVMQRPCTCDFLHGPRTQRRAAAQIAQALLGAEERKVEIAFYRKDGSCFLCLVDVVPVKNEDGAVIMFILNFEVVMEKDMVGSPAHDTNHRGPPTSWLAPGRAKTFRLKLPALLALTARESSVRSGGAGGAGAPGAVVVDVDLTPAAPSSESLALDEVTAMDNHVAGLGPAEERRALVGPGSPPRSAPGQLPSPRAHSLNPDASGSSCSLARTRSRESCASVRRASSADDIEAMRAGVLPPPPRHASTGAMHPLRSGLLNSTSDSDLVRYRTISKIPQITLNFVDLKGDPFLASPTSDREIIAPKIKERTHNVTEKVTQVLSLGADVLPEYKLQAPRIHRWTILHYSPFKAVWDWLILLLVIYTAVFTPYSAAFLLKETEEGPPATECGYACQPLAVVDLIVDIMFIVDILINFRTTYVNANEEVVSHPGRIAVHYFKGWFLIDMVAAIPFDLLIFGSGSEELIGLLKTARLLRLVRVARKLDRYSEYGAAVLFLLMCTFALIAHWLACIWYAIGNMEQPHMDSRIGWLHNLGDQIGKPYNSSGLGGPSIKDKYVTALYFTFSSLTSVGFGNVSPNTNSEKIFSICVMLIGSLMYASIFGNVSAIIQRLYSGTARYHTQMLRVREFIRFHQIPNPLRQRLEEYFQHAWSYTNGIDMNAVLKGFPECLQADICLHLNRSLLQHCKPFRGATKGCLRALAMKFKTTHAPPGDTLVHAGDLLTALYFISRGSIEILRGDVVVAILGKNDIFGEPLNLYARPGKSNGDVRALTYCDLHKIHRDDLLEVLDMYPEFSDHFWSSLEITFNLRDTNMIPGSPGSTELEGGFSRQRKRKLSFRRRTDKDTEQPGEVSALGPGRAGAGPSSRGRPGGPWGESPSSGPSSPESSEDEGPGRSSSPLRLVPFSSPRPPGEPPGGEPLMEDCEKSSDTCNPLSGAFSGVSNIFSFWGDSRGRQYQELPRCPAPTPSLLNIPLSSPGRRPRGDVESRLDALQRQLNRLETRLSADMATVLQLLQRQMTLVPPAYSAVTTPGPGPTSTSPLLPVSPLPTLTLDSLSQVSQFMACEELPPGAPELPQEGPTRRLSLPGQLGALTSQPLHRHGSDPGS

The assay addresses human ether-à-go-go-related gene (hERG) potassium channel (human, UniProt Q12809). In words: primary screen, population patch clamp on CHO cells stably expressing hERG.
`O=C(c1cc2sccc2n1Cc1ccccc1)N1CCN(c2nc3ccccc3s2)CC1`: the “hERG current change (%, negative = inhibition) at 1uM” value was -3.98%. Consider `CC(C)C(=O)Nc1nnc(NC(=S)Nc2ccccc2)s1`, for which the “hERG current change (%, negative = inhibition) at 1uM” value was found to be 13.4%. Turning to `Cc1ccc2nc(SCC(=O)N3CCN(c4ccccc4)CC3)[nH]c2c1`, the “hERG current change (%, negative = inhibition) at 1uM” value is given as 4.32%. As for `CC(=O)Nc1cccc(/C(C)=N/Nc2nc3ccccc3s2)c1`, the figure is 4.79%; as for `N#C/C(=C\c1cn(CC(=O)O)c2ccccc12)C(=O)NCc1ccccc1`, 9.65%. As for `CCC(=O)Nc1ccc(/C(C)=N\NC(=O)c2ccc(C)s2)cc1`, the figure is 9.67%; as for `CCC1(CC)C(=O)NC(=Nc2cccc(C(F)(F)F)c2)NC1=O`, 10.6%. For the molecule `COc1cc(C(c2oc(CO)cc(=O)c2O)c2oc(CO)cc(=O)c2O)cc(OC)c1OC`, the “hERG current change (%, negative = inhibition) at 1uM” value amounted to 10.1%.

On to `O=C(Nc1cccc(Cl)c1)Nc1ccc2c(c1)C(=O)OC2`, for which the “hERG current change (%, negative = inhibition) at 1uM” value is reported as 7.62%. In the case of `O=C(NCCNC(=O)c1cc(Cl)ccc1Cl)c1ccco1`, the “hERG current change (%, negative = inhibition) at 1uM” value is -1.6%. Turning to `COc1ccc(C(=O)Nc2cc3c(cc2Cl)OCCCO3)cc1`, the “hERG current change (%, negative = inhibition) at 1uM” value amounted to 16.3%. Turning to `CCCN1CCN(C(=O)Nc2ccc(OCC)cc2)CC1`, the “hERG current change (%, negative = inhibition) at 1uM” value was 6.8%. As for `Cl.Clc1cccc(OCCn2ccnc2)c1`, the “hERG current change (%, negative = inhibition) at 1uM” value is reported as 19%. `Cc1cc(C)n(C(=O)CNC(=O)CCc2ccccc2)n1`: the “hERG current change (%, negative = inhibition) at 1uM” value was determined as 5.25%. On to `COc1ccc(-n2c(SCC(=O)N3CCc4ccccc43)nnc2-c2c[nH]c3ccccc23)cc1`, for which the “hERG current change (%, negative = inhibition) at 1uM” value is reported as 19.3%. For the molecule `COc1ccc(C=C2C(=O)OC(C)(C)OC2=O)cc1OC`, the “hERG current change (%, negative = inhibition) at 1uM” value was 11.6%. As for `COc1ccc(CSCC(=O)Nc2ccccc2SC)cc1`, the figure is 6.3%; as for `CC(NC(=O)COc1cc(=O)n(C)c2ccccc12)c1ccc2c(c1)OCCO2` (stereo not drawn), 10.1%; as for `CC(C)(C)C1CCC(=NNc2nc3ccccc3[nH]2)CC1` (stereo not drawn), 11.2%. Regarding `CCOc1ccc(CN2CCN(C3CCC3)CC2CCO)cc1` (stereo not drawn), the “hERG current change (%, negative = inhibition) at 1uM” value amounted to 3.11%.

As for `Cc1cccc(NC(=S)NCCc2ccccc2)c1C`, the “hERG current change (%, negative = inhibition) at 1uM” value was determined as 9.44%. Regarding `CCCC(=O)OCCNc1cc(SCCC(=O)OC)c2nonc2c1[N+](=O)[O-]`, the “hERG current change (%, negative = inhibition) at 1uM” value was 8.34%. Take `O=C(C1CCCCC1)N1CCC(n2nnc3ccccc32)CC1`: the “hERG current change (%, negative = inhibition) at 1uM” value came out at 10.5%. `Cc1cc(=O)oc(C)c1C(=O)N1CCN(C(c2ccccc2)c2ccccc2)CC1`: the “hERG current change (%, negative = inhibition) at 1uM” value amounted to 3.57%. As for `c1csc(-c2nnc(COc3ccc4c(c3)OCO4)o2)c1`, the figure is 7.83%. As for `CC(/C=C/c1ccc(C)o1)=C\C(=O)O`, the figure is 10.6%; as for `CCOc1ccccc1NC(=O)CSc1nnc(Cn2c(=O)sc3ccccc32)n1C`, -37.3%; as for `C/C(=N\Nc1nc(N2CCCCCC2)nc(N2CCCCCC2)n1)c1ccccc1`, 12.8%. As for `C#CCn1cccc(C(=O)Nc2ccc(OC)cc2)c1=O`, the figure is 12.9%.

Consider `CC(C(=O)Nc1cccc(S(=O)(=O)N2CCOCC2)c1)N1CCN(C/C=C/c2ccccc2)CC1` (stereo not drawn), for which the “hERG current change (%, negative = inhibition) at 1uM” value is listed as -32.5%. Turning to `CC1CS(=O)(=O)CCN1N=Cc1ccc([N+](=O)[O-])o1` (stereo not drawn), the “hERG current change (%, negative = inhibition) at 1uM” value turned out to be 15.9%. As for `C=CCNC(=O)c1ccccc1NS(=O)(=O)c1ccc(OC)c(C(=O)N2CCOCC2)c1`, the figure is 14.9%; as for `Cc1c(Oc2ccc(C(F)(F)F)cc2[N+](=O)[O-])ccc2c3c(c(=O)oc12)CCC3`, 4.93%; as for `COc1cc(CCC(=O)Nc2c(C(=O)N3CCN(c4ccccc4OC)CC3)oc3ccccc23)on1`, 8.38%. As for `COc1cc(C2C(C(=O)c3ccco3)=C(O)C(=O)N2Cc2ccccc2)ccc1O` (stereo not drawn), the figure is 19.9%; as for `N#Cc1cc2c(nc1SCC(O)CS(=O)(=O)Cc1ccccc1)CCCC2` (stereo not drawn), -3.78%; as for `Cc1ccc(C(=O)COC(=O)CNC(=O)c2ccccc2)s1`, 0.568%.

In the case of `O=C(COC(=O)C(Cc1ccccc1)NC(=O)c1ccco1)NC1CC1` (stereo not drawn), the “hERG current change (%, negative = inhibition) at 1uM” value worked out at 7.91%. As for `COc1ccc(CCNC(=O)c2ccc(CNS(=O)(=O)c3cccc(Cl)c3)cc2)cc1OC`, the figure is 6.6%. Consider `CCC1(c2ccccc2)NC(=O)N(CC(=O)NC2(C#N)CCCCC2)C1=O` (stereo not drawn), for which the “hERG current change (%, negative = inhibition) at 1uM” value was -0.853%. Consider `O=C(NCc1ccc(/C=c2\sc3n(c2=O)CCN=3)o1)C(=O)Nc1ccccc1`, for which the “hERG current change (%, negative = inhibition) at 1uM” value was -2.32%. As for `Nn1c(COc2ccccc2)nnc1SC(F)F`, the figure is 8.28%; as for `COc1ccc(S(=O)(=O)N2CCCCCC2)cc1C(=O)N(C)Cc1ccccc1F`, 6.9%; as for `O=S1(=O)CCO[C@H]2Cc3ccccc3[C@H]2N1Cc1cccc(F)c1`, 7.36%. In the case of `C/C=C/c1ccccc1OCc1ccc(C(=O)OC)o1` it was 11.4%.
